Measured values taken from PMC4336329 (PLoS ONE, 2015).
Hit rate of the full screen: of about 310,000 compounds, about 2,200 (0.71%) showed an effect of 50% or more. Effects have a minus sign here. The list shows a part of the results.

These molecules were tested against human ether-à-go-go-related gene (hERG) potassium channel (human, UniProt Q12809) (assay: primary screen, population patch clamp on CHO cells stably expressing hERG).
Sequence of human ether-à-go-go-related gene (hERG) potassium channel (Q12809 whole entry, looked up): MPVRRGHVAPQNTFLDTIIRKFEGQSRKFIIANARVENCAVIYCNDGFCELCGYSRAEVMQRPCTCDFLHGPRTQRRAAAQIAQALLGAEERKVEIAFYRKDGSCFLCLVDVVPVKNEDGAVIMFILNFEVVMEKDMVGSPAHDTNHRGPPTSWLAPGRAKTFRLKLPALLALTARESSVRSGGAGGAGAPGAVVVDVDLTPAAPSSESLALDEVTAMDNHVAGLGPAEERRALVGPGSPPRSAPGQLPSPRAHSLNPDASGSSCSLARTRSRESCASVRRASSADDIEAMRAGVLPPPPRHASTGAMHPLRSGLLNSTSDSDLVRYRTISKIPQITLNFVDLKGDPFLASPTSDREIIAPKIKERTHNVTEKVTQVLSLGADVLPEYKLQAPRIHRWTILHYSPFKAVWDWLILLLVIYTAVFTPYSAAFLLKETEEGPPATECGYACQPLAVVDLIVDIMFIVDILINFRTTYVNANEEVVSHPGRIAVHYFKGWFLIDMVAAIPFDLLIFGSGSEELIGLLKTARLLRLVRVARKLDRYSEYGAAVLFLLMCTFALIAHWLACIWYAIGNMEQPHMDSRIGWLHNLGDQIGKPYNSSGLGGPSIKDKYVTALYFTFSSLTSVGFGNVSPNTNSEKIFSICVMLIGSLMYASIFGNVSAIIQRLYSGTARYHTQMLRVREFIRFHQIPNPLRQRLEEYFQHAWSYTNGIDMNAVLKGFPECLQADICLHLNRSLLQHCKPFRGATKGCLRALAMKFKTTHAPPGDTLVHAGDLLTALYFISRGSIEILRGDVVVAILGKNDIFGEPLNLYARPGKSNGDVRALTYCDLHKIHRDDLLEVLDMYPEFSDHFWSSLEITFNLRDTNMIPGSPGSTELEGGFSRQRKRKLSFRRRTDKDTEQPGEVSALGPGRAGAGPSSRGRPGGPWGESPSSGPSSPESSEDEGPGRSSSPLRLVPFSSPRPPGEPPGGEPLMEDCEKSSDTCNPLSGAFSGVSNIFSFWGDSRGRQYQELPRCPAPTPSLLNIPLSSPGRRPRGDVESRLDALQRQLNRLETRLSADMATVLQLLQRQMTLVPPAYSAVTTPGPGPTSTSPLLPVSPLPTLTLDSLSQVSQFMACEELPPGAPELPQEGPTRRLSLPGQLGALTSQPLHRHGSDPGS

SMILES	hERG current change (%, negative = inhibition) at 1uM
O=c1c2c(nc3nc(NCc4cccc(Cl)c4)[nH]n13)CCC2	10.3%
O=C(CC(c1ccccc1)(c1ccccc1)c1ccccc1)N[C@@H](Cc1ccccc1)C(=O)O	14.7%
CCCCNC(=O)COc1ccccc1C(=O)c1cc(C#N)c(=O)n(CCOC)c1	-3.15%
O=C(COc1cccc(Cl)c1)Nc1ccc2c(c1)CCC2	3.64%
COc1ccc(C(=O)COC(=O)C(C(C)C)N2C(=O)C3C4C=CC(C4)C3C2=O)cc1 (stereo not shown)	8.56%
COc1cccc(OCc2nnc3n2N=C(c2ccccc2)C(CC(=O)O)S3)c1 (stereo not shown)	19.6%
Cc1cccc(-n2ncc3c(NCc4ccccn4)ncnc32)c1	-1%
C=CCn1c(SCC(=O)NC(=O)NCCC)nnc1C1CCCCC1	12.4%
CCN1CCN(C(=O)c2cc3c(OC)c(OC)c(OC)cc3[nH]2)CC1	27.8%
FC(F)(F)c1nnc2c(Sc3ccccc3)nc3ccccc3n12	8%
N#Cc1ccc(C(=O)OCC(=O)N2CCOCC2)cc1	15.4%
CC(CCc1ccccc1)NC(=O)CCNS(=O)(=O)c1ccccc1C(F)(F)F (stereo not shown)	16.2%
Cc1cc(OCC(=O)Nn2cnnc2)ccc1Br	8.67%
O=C1COc2cc(S(=O)(=O)CCC(=O)N3CCCCC3)c(Cl)cc2N1	4.22%
O=C(c1cc2cc(Cl)ccc2oc1=O)N1CCCCCCC1	6.39%
Cc1cc(C)c(S(=O)(=O)N(C2=NCCS2)S(=O)(=O)c2c(C)cc(C)cc2C)c(C)c1	6.55%
O=C(O)CCc1ccc(S(=O)(=O)Nc2ccc(OCc3ccccc3)cc2)cc1	8.72%
Cc1cccc(CCN(C(=O)c2csnn2)C(C(=O)NC2CCCC2)c2ccco2)c1 (stereo not shown)	-2.28%
O=C(CSc1nnc(C2CC2)n1Cc1ccco1)NCC(F)(F)F	14.9%
O=C1c2ccccc2C(=O)N1CN(C(=O)COc1ccccc1)c1ccc(F)cc1	10.7%
COC(=O)c1sccc1NS(=O)(=O)c1ccc(OC)cc1	-1.68%
C1=CN2CCC1C(c1ccccc1)C2.Cl (stereo not shown)	10.2%

SMILES	hERG current change (%, negative = inhibition) at 1uM
O=C(CN1CCN(c2ccccc2F)CC1)c1c[nH]c2ccccc12	10%
COc1ccc(C#Cc2ccc3c(c2)c(=O)c2ccccc2n3C)cc1	14.2%
C/C(=N\Nc1cc(C(F)(F)F)ccc1Cl)c1ccccc1O	11.5%
CCC(=O)OCc1c(C(F)(F)F)nn(C)c1Sc1ccc(Cl)cc1	6.95%
Cc1ccc(S(=O)(=O)CC(=O)Nc2cccc(C)n2)cc1	9.16%
Cc1cc2cc(C(=O)N3CCc4c([nH]c5ccccc45)C3c3ccccn3)ccc2o1 (stereo not shown)	13.2%
C=C1CCN([C@@H](CC(C)C)C(=O)NCc2ccc(Cl)cc2)S(=O)(=O)c2ccccc21	16.5%
CCC(COC(=O)Nc1ccccc1)NC(=O)OC(C)C (stereo not shown)	6.87%
CCCCCc1cc(=O)oc2c(C(CCN3CCN(c4ccccc4)CC3)c3ccc(N(C)C)cc3)c(OC)cc(OC)c12 (stereo not shown)	7.79%
O=C(c1cc(COc2ccc(F)cc2F)on1)N1CCN(C(=O)c2ccco2)CC1	-17.6%
Cc1ccc(C(C)C)cc1OCCN1CCCC1	-2.61%
CC(C)CNC(=O)C(=O)NCCCN1CCOCC1	-2.49%
CCNC(=O)NC(=O)C(C)OC(=O)CCCc1nc2ccccc2s1 (stereo not shown)	13.9%
COc1ccc(OCCNS(=O)(=O)Cc2ccccc2)cc1	5.16%
O=C(c1ccc(OC2CCN(Cc3cccc(OCCO)c3)CC2)cc1)N1CCCC1	1.86%
Cc1cccc(C2Nc3ccccc3C(=O)N2c2ccc(F)cc2)n1 (stereo not shown)	-10.1%
COc1ccc(SCc2noc(C(=O)NC(C)C)c2C(=O)O)cc1	12.4%
COc1ccc2c(c1OC)C(=O)OC2Nc1nc(-c2cc3ccccc3oc2=O)cs1 (stereo not shown)	4.4%
O=C(N/N=C/c1ccsc1)c1ccccn1	16.7%
COc1ccc(NS(=O)(=O)c2ccc(NC(=O)C(CCSC)NC(N)=O)cc2)cc1 (stereo not shown)	16.6%
Cn1c(CN2CCN(C(=O)c3ccc(F)cc3)CC2)nc2cc([N+](=O)[O-])ccc21	-59.1%
CCOC(=O)c1ccc(-c2c(-c3ccccc3OC)sc3cc4c(cc23)OCO4)cc1F	13.5%

SMILES	hERG current change (%, negative = inhibition) at 1uM
CCOc1ccc(NC(=O)NCC2CCN(Cc3ccc(F)cc3)CC2)cc1	-18.3%
N#CCSc1ccccc1NC(=O)COc1ccc(-c2nnco2)cc1	-24.5%
Cc1ccc(S(=O)(=O)NNc2nc3ccccc3nc2C(F)(F)F)cc1	10.4%
O=C(Nn1c(COc2ccccc2)nc2ccccc2c1=O)C(Cl)(Cl)Cl	8.75%
CCc1ccccc1N1CC23C=CC(O2)C(C(=O)O)C3C1=O (stereo not shown)	8%
COc1cc(OC)cc(-c2c(C#Cc3ccsc3)c3cc(-c4ccc(C(N)=O)cc4)ccc3n2C)c1	18.1%
Cc1ccc(SCc2nc(N)nc(Nc3ccccc3C)n2)cc1C	10.5%
Cc1ccc(S(=O)(=O)c2nnn3c2nc(N2CCOCC2)c2ccccc23)cc1C	14.6%
O=C(NC1CCCc2ccccc21)c1cncc(Br)c1 (stereo not shown)	11%
N#Cc1ccc(Oc2ccc(-c3nc4ccccc4nc3-c3ccccc3)cc2)cc1C#N	12.6%
O=C(NCC1CC1)Nc1cccs1	15.4%
CCC1(C(=O)OC)CCc2c(cc(OC)c3ccccc23)C1=O (stereo not shown)	7.96%
COc1ccc2nc(N3CCCC3)[nH]c2c1.Cl	7.5%
COC(=O)c1ccc(CSc2nnc3c(Cl)cc(Cl)cn23)o1	13.8%
CCOC(=O)c1c(C)oc2c1c(C=NC1CCS(=O)(=O)C1)c(O)c1ccccc12 (stereo not shown)	1.48%
O=C(Cc1ccc(Cl)c(Cl)c1)OCC(=O)c1ccc[nH]1	8.79%
CCc1cccc(OCCOCCN2CCCC2)c1.O=C(O)C(=O)O	-17.6%
O=C(OCC(=O)N1CCCC1)c1ccc(Cl)c([N+](=O)[O-])c1	0.53%
COc1ccc2c(c1OC)C(=O)OC2Nc1ccccc1S(=O)(=O)C(F)F (stereo not shown)	17.3%
CCN1CCN(CCOc2ccccc2-c2ccccc2)CC1.O=C(O)C(=O)O	-5.08%
CN(Cc1nc2ccc(F)cc2[nH]1)Cc1c(C(=O)N(C)C)nc2ccc(Cl)cn12	-16.4%
Cc1ccc(/C=N/NC(=O)c2ccccc2OCc2cccc(Br)c2)o1	3.98%

SMILES	hERG current change (%, negative = inhibition) at 1uM
COc1cc(NC(=S)NC(=O)c2ccco2)ccc1NC(=O)C(C)C	7.92%
NS(=O)(=O)c1ccc2c(c1)C(=NO)c1cc(S(N)(=O)=O)ccc1-2	10.1%
CC(OC(=O)CC1CC2CCC1C2)C(=O)Nc1cccc(S(=O)(=O)N2CCOCC2)c1 (stereo not shown)	13.7%
CCC1CCCCN1CCCNC(=O)Cn1c(=O)c2cccn2c2ccccc21 (stereo not shown)	9.41%
Cc1ccc(C(=O)OCC(=O)NC2CCCC2)cc1C	9.71%
Cn1c(SCc2cccc(Cl)c2)nc(C(F)(F)F)cc1=O	18.4%
C/C(=N\NC(=O)c1cc(C)oc1C)c1ccc2c(c1)OCO2	2.82%
C/C(CC(=O)Nc1cccc2c1CCCC2)=N\NC(=O)c1ccccc1N	3.55%
CCOC(=O)c1c(C)[nH]c(C(=O)OCC(=O)NCc2ccc(F)cc2)c1C	7.37%
c1ccc(-n2c(-c3ccco3)nnc2N2CCOCC2)cc1	15.2%
COc1ccc(S(=O)(=O)N2CCCCC2)cc1NC(=O)c1cc([N+](=O)[O-])ccc1N1CCOCC1	1.19%
CCc1csc(CCNC(=O)C2CCC(=O)N(CCc3cccc(F)c3)C2)n1 (stereo not shown)	5.04%
Cc1ccc(NC2=CC(=O)CC(c3ccc(Cl)cc3)C2)cc1 (stereo not shown)	7.86%
Cc1cccc(NC(=O)Cn2c(=O)n3nc(CCn4nc(C)cc4C)nc3c3ccccc32)c1	-18.7%
O=C(Cc1cccs1)N/N=C/C=C/c1ccccc1[N+](=O)[O-]	9.51%
Cc1ccc(S(=O)(=O)N2CCOCC2)cc1NC(=O)COC(=O)C1=COCCO1	19.7%
CCC1(c2ccccc2)NC(=O)N(CC(=O)NCc2ccc(C)cc2)C1=O (stereo not shown)	14.4%
COCCNc1ncnc2c1nc1n2CCCC1	10.4%
CN(Cc1ccco1)C(=O)Cn1cc(S(=O)(=O)N2CCCC2)c(S(=O)(=O)N2CCCC2)c1	10.8%
O=c1c2c(nc3cc(-c4ccc(Cl)cc4)[nH]n13)CCS2	-0.631%
CCCCN(CC)CCCNC(=O)c1ccc(CSc2nc3ccncc3[nH]2)cc1	9.93%
COc1ccc(/C=N/N2CCN(c3ccncc3S(=O)(=O)N3CCCCC3)CC2)cc1	9.52%
